Measurements reported in PubChem BioAssay AID652104 (National Center for Advancing Translational Sciences (NCATS), 2013).
Out of some 410,000 compounds screened, about 7,200 (1.8%) were called active. The inconclusive results got no clear call from the source; some entries with a clear call stand among them for comparison. Calls come from the whole dose curve; as a rule, active = well fitted activation curve with a large enough effect; inconclusive = small, poorly fitted or top-dose-only effect, or another doubt; inactive = no such curve, though single readings can be large or run the other way. No potency is given beside an inconclusive call; the fits are too rough.

Experiment: qHTS of TDP-43 Inhibitors; note: nearly all actives have a fitted effect of over 50% in size; for growth rescue (activation): % of control where 0% means no effect
Settings: TDP-43 expressing yeast growth rescue, BacTiter-Glo, 24 h; growth rescue (activation): at 46.1 µM (top of the series) unless noted
How it was run: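 Cell-based yeast growth screen: TDP-43 expression induced in galactose, inoculum OD600=0.02 after raffinose pregrowth to mid-log. Read-out BacTiter-Glo luminescence at 24 hr, 30 deg C; inhibition of toxicity seen as signal increase.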
Potency is the fitted concentration of half-maximal effect; tags give direction and shape of the fitted curve.

Structure (SMILES) | Potency | growth rescue (activation)
CC(C)CC(=NNC(=O)c1ccncc1)c1cc(Cl)ccc1O | inconclusive [activator, single point] | –
CCCc1nn(C)c(C(=O)Nc2ccccc2)c1Cl | inconclusive [activator, partial curve] | –
CN(C)c1nc(F)c(F)c(S(=O)(=O)c2ccccc2)c1F | active: 14.1 µM | –
O=C(NCC1CCCO1)c1cccc(Oc2ccc([N+](=O)[O-])cc2Cl)c1 (stereo unspecified) | inconclusive [activator, single point] | –
Cc1ccc(Sc2cnccc2C#N)cc1 | active: 12.6 µM | –
OC(c1cccc(CN2CCCCC2)c1)c1ncc(-c2cccc3ccccc23)[nH]1 (stereo unspecified) | inconclusive [activator, full curve, poor fit] | –
O=C(NCCCCc1ccccc1)c1ccccc1Cl | inconclusive [activator, full curve, poor fit] | –
Cc1ccccc1NC(=O)Cc1cccc(C(F)(F)F)c1 | inconclusive [activator, full curve, poor fit] | –
O=C(Nc1ccc2ccccc2c1)C(c1ccccc1)n1c(=O)c(-c2cc3ccccc3[nH]2)nc2ccccc21 (stereo unspecified) | inconclusive [activator, partial curve] | –
COCCNC(=O)Cc1ccc(Br)cc1 | inconclusive [activator, partial curve, poor fit] | –
CCC(C)(C)n1nnnc1C(c1cccnc1)N1CCN(c2cccc(C(F)(F)F)c2)CC1 (stereo unspecified) | inconclusive [activator, single point] | –
Cc1c(C(=O)N2CCc3ccccc32)oc2ccccc12 | inconclusive [activator, partial curve] | –
CC(=O)OC1CCC2(C)C(CCC3C2CC(OC(C)=O)C2(C)C3C[C@@H]3O[C@]4(CC[C@@H](C)CO4)[C@@H](C)C32)C1 (stereo partly specified) | inconclusive [activator, full curve, poor fit] | –
Brc1ccc(CSc2ccc3nnc(-c4ccccn4)n3n2)cc1 | inconclusive [activator, single point] | –
CCN(CC)c1ccc2cc(-c3nc4ccccc4n3C)c(=O)oc2c1 | inconclusive [activator, partial curve] | –
Cc1onc(C(=O)Nc2ccccc2C(F)(F)F)c1[N+](=O)[O-] | inactive | –
Cc1nc(SCC(=O)NCC2CCCO2)c2cc(-c3ccccc3)sc2n1 (stereo unspecified) | inconclusive [activator, partial curve] | –
Cc1ccc(S(=O)(=O)CCc2nc3ccccc3s2)cc1C | inconclusive [activator, partial curve] | –
COc1ccc(S(=O)(=O)NCC(c2ccco2)S(=O)(=O)c2ccc(C)cc2)cc1C (stereo unspecified) | inconclusive [activator, full curve, poor fit] | –
CCc1cc(-c2cnnn2Cc2ccccc2)ccc1-c1cn(CC(C)C)nn1 | inconclusive [activator, partial curve, poor fit] | –
Cc1cccc(C(C#N)c2nc3ccccc3nc2C(F)(F)F)c1 (stereo unspecified) | inconclusive [activator, partial curve] | –

Structure (SMILES) | Potency | growth rescue (activation)
COc1ccc(N/C=C/C(=O)c2ccc3c(c2)OCO3)cc1OC | inconclusive [activator, single point] | –
CCOc1ccc(-c2cn3c(n2)sc2cc(C(=O)NCCC4=CCCCC4)ccc23)cc1 | – | inactive: 0% [at 9.22 µM]
CCOc1ccc(NC(=O)CSc2nnc(CC)c(CC)n2)cc1 | inconclusive [activator, partial curve] | –
O=C(Nc1ccccc1Cl)c1cc(C2CCCN(C(=O)c3ccc4c(c3)CCO4)C2)on1 (stereo unspecified) | inconclusive [activator, single point] | –
COc1ccc(-c2oc3c(c2C#CC(C)(C)O)C(OCCO)CC3)cc1 (stereo unspecified) | inconclusive [activator, partial curve] | –
O=C(Nc1cccc2c1[nH]c(=O)c1ccccc12)C(F)(F)F | inactive | –
N#Cc1c(NC(=O)C2CC(c3c(F)cccc3Cl)=NO2)sc2c1CCC2 (stereo unspecified) | inactive | –
Cc1sc(NC(=O)C2CSC3(C)CCC(=O)N23)nc1-c1ccccc1 (stereo unspecified) | inconclusive [activator, partial curve, poor fit] | –
O=C(O)c1ccccc1C(=O)c1cccc2c(F)cccc12 | inconclusive [activator, partial curve] | –
CN(CC(=O)O)S(=O)(=O)c1ccc2c(c1)n(C)c(=O)c(=O)n2C | inactive | –
CC(C)c1nnc(NC(=O)c2sc3ccccc3c2Cl)s1 | inconclusive [activator, single point] | –
N/C(=N\OC(=O)Cc1ccccc1)c1ccccc1Cl | inconclusive [activator, partial curve] | –
Cc1cccc(-c2noc(CNS(=O)(=O)c3ccccc3)n2)c1 | inconclusive [activator, partial curve] | –
CN(c1ccc(S(=O)(=O)N2CCOCC2)cn1)C1CCCCC1 | inconclusive [activator, single point] | –
O=C1CSC2(C(=O)N(Cc3ccccc3)c3ccccc32)N1c1cccc(F)c1 (stereo unspecified) | inconclusive [activator, single point] | –
CC1(C)CC(=O)C=C(c2ccc(COC(=O)c3cccc(C(F)(F)F)c3)cc2)C1=O | inconclusive [activator, partial curve, poor fit] | –
CN(C)c1ccc(NC(=O)c2ccc(COc3cccc(Cl)c3)o2)cc1 | inconclusive [activator, single point] | –
O=C(/C=C/c1cccc([N+](=O)[O-])c1)c1ccc2c(c1)OCCO2 | inconclusive [activator, partial curve] | –
CCCC1CCC(c2ccc(/C(N)=N/O)cc2)CC1 (stereo unspecified) | active: 3.55 µM | –
CCN(CC)C(=O)Nc1ccc(Br)cc1 | inconclusive [activator, partial curve] | –
